Measured values published in PubChem BioAssay AID1460 (National Center for Advancing Translational Sciences (NCATS), 2008).
About 5,800 (2.1%) of roughly 270,000 compounds were called active. The inconclusive results got no clear call from the source; some entries with a clear call stand among them for comparison. Calls come from the whole dose curve; as a rule, active = well fitted inhibition curve with a large enough effect; inconclusive = small, poorly fitted or top-dose-only effect; inactive = flat fitted curve, though single readings scatter. Where the call is inconclusive, the potency comes from a doubtful curve fit.

The compounds below were run against Microtubule-associated protein tau (Homo sapiens) (UniProt P10636) (assay: qHTS for Inhibitors of Tau Fibril Formation, Thioflavin T Binding). Details: recombinant tau K18 P301L (four-repeat tau fragment), heparin-induced fibrillization, ThT fluorescence; series mostly up to 57.4 µM.
Summary of the method: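 Heparin-induced fibrillization of the P301L-mutant K18 repeat-domain fragment of human tau was followed by ThT binding in quantitative high-throughput format.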
Note: nearly all actives have a fitted effect of over 55% in size.
Potency is the fitted concentration of half-maximal effect; tags give direction and shape of the fitted curve.

UniProt P10636, sequence (P10636 whole entry, looked up, the tested form may be a part): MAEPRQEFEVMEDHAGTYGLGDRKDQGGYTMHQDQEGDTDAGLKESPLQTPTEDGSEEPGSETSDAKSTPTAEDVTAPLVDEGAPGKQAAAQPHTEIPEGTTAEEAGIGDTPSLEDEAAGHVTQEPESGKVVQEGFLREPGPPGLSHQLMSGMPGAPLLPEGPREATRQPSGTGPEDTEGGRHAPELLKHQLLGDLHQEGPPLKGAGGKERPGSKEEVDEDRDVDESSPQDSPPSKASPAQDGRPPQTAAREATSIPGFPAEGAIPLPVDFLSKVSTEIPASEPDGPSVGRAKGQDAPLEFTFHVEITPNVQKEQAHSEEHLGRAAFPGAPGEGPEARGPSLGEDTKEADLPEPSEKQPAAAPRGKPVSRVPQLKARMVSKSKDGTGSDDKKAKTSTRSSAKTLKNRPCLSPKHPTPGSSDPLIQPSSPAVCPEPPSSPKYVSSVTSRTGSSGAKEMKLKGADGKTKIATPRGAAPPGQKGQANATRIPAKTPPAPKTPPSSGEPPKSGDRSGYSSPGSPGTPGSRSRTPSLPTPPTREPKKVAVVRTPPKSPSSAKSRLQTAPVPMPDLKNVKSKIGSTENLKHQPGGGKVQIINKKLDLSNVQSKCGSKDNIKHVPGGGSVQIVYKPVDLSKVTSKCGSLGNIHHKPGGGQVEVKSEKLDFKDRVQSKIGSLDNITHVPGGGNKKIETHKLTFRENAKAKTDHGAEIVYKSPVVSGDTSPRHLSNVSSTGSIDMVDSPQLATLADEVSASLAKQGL

**Q.** How did the Potency turn out when `C=CCN1C(=O)C(C)NC1=S` (stereo not given) was run?
**A.** Its Potency is inconclusive: 12.6 µM [inhibitor, partial curve].

**Q.** With `CCOC(=O)c1nn(-c2ccccc2)c(=O)c2c(N)scc12` as the compound, how does the Potency read?
**A.** Its Potency is active: 8.91 µM.

**Q.** How did the Potency turn out when `CCc1cccc(C)c1NC(=S)NCc1ccc2[nH]c(C)cc2c1` was run?
**A.** Its Potency is “inactive”.

**Q.** How did the Potency turn out when `COc1ccccc1NC(=O)c1sc2nc(C)c(C(=O)Nc3ccc(C)cc3C)c(-c3ccc(C)o3)c2c1N` was run?
**A.** Its Potency is inconclusive: 3.16 µM [inhibitor, full curve].

**Q.** How did the Potency turn out when `COc1ccccc1NC(=O)C1=C(C)NC(=O)NC1c1ccccc1[N+](=O)[O-]` (stereo not given) was run?
**A.** Its Potency is inconclusive: 17.8 µM [inhibitor, partial curve].

**Q.** With `CC(=O)Nc1ccc(OC(=O)c2cc3ccccc3oc2=O)cc1` as the compound, how does the Potency read?
**A.** Its Potency is inconclusive: 22.4 µM [inhibitor, single point].

**Q.** How did the Potency turn out when `Cn1nnc(NC(=S)NC(=O)c2ccc(-c3ccc(Br)cc3)o2)n1` was run?
**A.** Its Potency is inconclusive: 7.08 µM [inhibitor, partial curve].

**Q.** `COc1cnc(N(C)C)nc1Sc1cccc(Cl)c1` was tested. Which Potency did it give?
**A.** Its Potency is inconclusive: 20 µM [inhibitor, partial curve].

**Q.** For `CC[n+]1c(/C=C/Nc2ccccc2)sc2ccccc21`, which Potency is on record?
**A.** Its Potency is inconclusive: 25.1 µM [inhibitor, single point].

**Q.** For `O=C(c1ccccc1)N(Cc1ccco1)Cc1cccs1`, which Potency is on record?
**A.** Its Potency is “inactive”.

**Q.** Which Potency does the source give for `O=C(Nc1ccc(Cl)cc1Cl)C1CCC(=O)N1Cc1ccccc1Cl` (stereo not given) here?
**A.** The Potency was inconclusive: 17.8 µM [inhibitor, single point].

**Q.** How did the Potency turn out when `Cc1cc(N2CCN(C)CC2)nc2ccc(NC(=O)c3ccc(Br)o3)cc12` was run?
**A.** Its Potency is inconclusive: 14.1 µM [inhibitor, partial curve].

**Q.** How did the Potency turn out when `O=C(NNc1ccc(O)cc1)c1ccc(Br)cc1` was run?
**A.** Its Potency is active: 15.8 µM.

**Q.** With `CCc1c(C)nc(SCC(=O)Nc2cccc(Br)c2)[nH]c1=O` as the compound, how does the Potency read?
**A.** The Potency was “inactive”.

**Q.** How did the Potency turn out when `Cc1ccc(C)c(Cn2c(=O)cc(C)c3c(C)nn(C)c32)c1` was run?
**A.** Its Potency is inconclusive: 5.62 µM [inhibitor, partial curve].

**Q.** With `CC(C)(C(O)c1ccc([N+](=O)[O-])cc1)[N+](=O)[O-]` (stereo not given) as the compound, how does the Potency read?
**A.** The Potency was “inactive”.

**Q.** For `O=C(NCc1ccco1)C1CCN(c2nc3ccccc3n2Cc2ccccc2F)CC1`, which Potency is on record?
**A.** The Potency was inconclusive: 25.1 µM [inhibitor, single point].

**Q.** How did the Potency turn out when `CCOC(=O)c1c(NC(=O)CSc2nnc(C)s2)sc2c1CCN(C)C2` was run?
**A.** The Potency was inconclusive: 28.2 µM [inhibitor, single point].

**Q.** With `COc1ccc(-c2c(C)cc3oc(=O)cc(-c4ccccc4)c3c2C)cc1OC` as the compound, how does the Potency read?
**A.** Its Potency is inconclusive: 11.2 µM [inhibitor, full curve].

**Q.** For `COc1ccccc1N1CCN(C(=O)c2cc3ccc4ccc(C)[nH]c4c3n2)CC1`, which Potency is on record?
**A.** Its Potency is inconclusive: 7.94 µM [inhibitor, partial curve].
